Test results from PubChem BioAssay (NCI).
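Five concentrations, 48 hours, 96-well plates. GI50 marks 50% less growth. The concentration for full growth arrest is given as TGI.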

System: NCI-H322M lung
Assay: DTP human tumour cell line panel, 48 h

SMILES | GI50 | TGI
O=C(c1ccc(Cl)cc1)C1[C@H](c2ccccc2Br)[C@@H](c2ccccc2)NC12C(=O)Nc1ccc(Br)cc12 (stereo partly specified) | 12.7 µM | > 49 µM
OCCNc1oc(-c2ccccc2)nc1[P+](c1ccccc1)(c1ccccc1)c1ccccc1 | 14.9 µM | 44.4 µM
COc1cc2c3c(n(CCCNCCO)c(=O)c2cc1OC)-c1nc2c(cc1C3=O)OCO2 | 3.95 µM | 17.3 µM
